# Reference: PMC4336329 (PLoS ONE, 2015)
# Among all 310,000 compounds or so, about 2,200 (0.71%) showed an effect of 50% or more. The effect is printed as a negative number. The list shows a part of the results.
# Biological target: human ether-à-go-go-related gene (hERG) potassium channel (human, UniProt Q12809)
# Assay: primary screen, population patch clamp on CHO cells stably expressing hERG
# Chain of human ether-à-go-go-related gene (hERG) potassium channel (Q12809 whole entry, looked up): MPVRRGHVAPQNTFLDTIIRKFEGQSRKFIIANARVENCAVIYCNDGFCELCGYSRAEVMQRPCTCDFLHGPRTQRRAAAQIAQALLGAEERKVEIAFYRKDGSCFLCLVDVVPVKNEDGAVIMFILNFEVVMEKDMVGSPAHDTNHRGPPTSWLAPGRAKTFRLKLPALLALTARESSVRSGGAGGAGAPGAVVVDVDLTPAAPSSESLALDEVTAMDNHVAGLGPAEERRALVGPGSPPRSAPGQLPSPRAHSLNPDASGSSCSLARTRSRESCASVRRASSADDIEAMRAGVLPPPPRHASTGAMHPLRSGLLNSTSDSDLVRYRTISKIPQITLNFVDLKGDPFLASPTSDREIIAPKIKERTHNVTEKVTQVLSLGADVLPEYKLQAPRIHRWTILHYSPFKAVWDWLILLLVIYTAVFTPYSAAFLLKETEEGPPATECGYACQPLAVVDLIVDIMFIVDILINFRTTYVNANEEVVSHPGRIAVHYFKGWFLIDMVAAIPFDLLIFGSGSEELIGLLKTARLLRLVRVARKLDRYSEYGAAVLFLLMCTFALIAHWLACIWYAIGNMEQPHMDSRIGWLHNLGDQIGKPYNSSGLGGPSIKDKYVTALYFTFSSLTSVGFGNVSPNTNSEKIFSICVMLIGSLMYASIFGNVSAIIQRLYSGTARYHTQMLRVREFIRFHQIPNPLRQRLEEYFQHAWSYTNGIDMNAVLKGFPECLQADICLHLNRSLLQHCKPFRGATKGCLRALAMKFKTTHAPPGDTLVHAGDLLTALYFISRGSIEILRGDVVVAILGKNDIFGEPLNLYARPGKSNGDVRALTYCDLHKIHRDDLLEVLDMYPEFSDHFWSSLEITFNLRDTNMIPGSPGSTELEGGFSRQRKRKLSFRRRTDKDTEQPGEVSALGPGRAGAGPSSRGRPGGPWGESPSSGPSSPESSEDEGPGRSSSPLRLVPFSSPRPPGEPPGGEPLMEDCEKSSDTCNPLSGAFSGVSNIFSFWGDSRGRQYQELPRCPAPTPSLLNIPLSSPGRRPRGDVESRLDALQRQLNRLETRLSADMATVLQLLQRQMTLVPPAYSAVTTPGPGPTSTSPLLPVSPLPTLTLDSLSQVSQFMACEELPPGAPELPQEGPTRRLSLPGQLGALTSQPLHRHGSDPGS
row,SMILES,"hERG current change (%, negative = inhibition) at 1uM"
1,CC(c1n[nH]c(=S)n1-c1ccc(F)cc1)N1CCCCC1 (centres unmarked),11.2%
2,O=C(COC(=O)C1=COCCO1)NC1CCCCC1,15.6%
3,NC(=O)c1ccc(/C=N/O)[n+](Cc2ccccc2)c1.[Br-],12.7%
4,CCn1c(=O)c(C(=O)Nc2ccccc2C)c(O)c2ccccc21,4.51%
5,CC1=C(C)C(OCCBr)N(c2cc(O)c(Cl)cc2F)C1=O (centres unmarked),8.85%
6,CN(C)S(=O)(=O)c1ccc(C(=O)NNC(=O)C2COc3ccccc3O2)cc1 (centres unmarked),1.67%
7,O=C(CCC(=O)NNC(=O)c1ccccc1[N+](=O)[O-])NCc1ccccc1,11.8%
8,O=C(O)c1cc(N/N=C/c2ccc(-c3ccccc3)cc2)ccc1Cl,15.2%
9,Cc1cccc(NC(=O)NNS(=O)(=O)c2ccc(F)cc2)c1,5.88%
10,COCCCNC(=O)Cn1c(=O)n(CCCCCC(=O)Nc2ccccc2)c(=O)c2sccc21,14%
11,N#CCCN(Cc1ccccc1)C(=S)Nc1ccccc1,-2.2%
12,COc1ccc(S(=O)(=O)NCc2ccccn2)cc1OC,13.4%
13,CN(CCNS(=O)(=O)c1ccc2c(c1)oc(=O)n2C)Cc1ccccc1,3.54%
14,CN(NC(=O)c1ccccc1Cl)c1ncc(C(F)(F)F)cc1Cl,4.02%
15,COc1ccc(OCc2cc(C(=O)N(C)C(C)c3ccon3)no2)c(Cl)c1 (centres unmarked),6.48%
16,Cn1c2c(c(=O)n(C)c1=O)CN(Cc1ccco1)CN2,11.1%
17,Cc1ccc(OCC(=O)NC2CCCC2)c(C)c1,7.07%
18,CCOc1ccc(NC(=O)[C@@H]2CCCN2C(=O)c2cccs2)cc1S(=O)(=O)N1CCOCC1,20.5%
19,CC(=O)Nc1cccc(NC(=O)Nc2ccc(C(C)=O)cc2)c1,12.1%
20,Cc1cc2ncn(S(=O)(=O)c3ccc(F)cc3)c2cc1C,11.3%
21,CCC(C)C(=O)OCC1(c2ccc(C)cc2OC(=O)C(C)C)CO1 (centres unmarked),5.32%
22,CCN(CC(=O)NC(C)C)C(=O)[C@H](C)NC(=O)c1ccc(Br)cc1,-2.68%
23,CCOC(=O)CC1C(=O)NCCN1S(=O)(=O)c1ccccc1Cl (centres unmarked),-4.56%

row,SMILES,"hERG current change (%, negative = inhibition) at 1uM"
1,COC(=O)c1c(C(=O)OC)c(-c2ccc(C)cc2)n2c1CS(=O)C2 (centres unmarked),0.467%
2,Cc1ccc2nc(Cl)c(-c3ccccc3)cc2c1,9.36%
3,COC(=O)C1C(=O)C2=C(CC1C)NC(C)=C(C(=O)OC1CCCCC1)C2c1ccc(N(C)C)cc1 (centres unmarked),12.1%
4,COc1cc(C(=S)N2CCN(c3cccc(Cl)c3)CC2)ccc1O,13.1%
5,COc1cc(OC)cc(C(=O)NCC(=O)OCC(=O)Nc2cc(S(C)(=O)=O)ccc2Cl)c1,12.5%
6,Cc1ccc(Cn2c(=N)c(S(=O)(=O)c3ccc(C)cc3)cc3c(=O)n4ccccc4nc32)cc1,6.66%
7,CCOC(=O)c1cccc(NC(=O)Cn2nc(C)n3cccc3c2=O)c1,4.49%
8,O=C(CN1C(=O)C2C3CCC(C3)C2C1=O)Oc1ccc2ccccc2c1 (centres unmarked),24%
9,CCOc1ccc(CCNC(=O)c2cccc(-n3cnnn3)c2)cc1OCC,4.43%
10,CCN(CC)S(=O)(=O)c1ccc(/C=C/C(=O)Nc2ccccc2N2CCOCC2)cc1,9.27%
11,N/C(Cc1cccc2ccccc12)=N\OC(=O)Cc1cccs1,13.7%
12,Cc1cc(Nc2cccc([N+](=O)[O-])c2)n2c(nc3ccccc32)c1C#N,12.2%
13,Cc1ccccc1COc1ccc(/C=C(\C#N)C(N)=O)cc1,17.9%
14,CCCSc1ccc([C@H]2N[C@@](C)(C(=O)OC)[C@H]3C(=O)N(C)C(=O)[C@@H]23)cc1.O=C(O)C(F)(F)F,11.6%
15,CC(C)C(NC(=O)c1ccc2c(c1)OCO2)C(=O)N/N=C\c1ccco1 (centres unmarked),3.58%
16,Cn1cc(C2N3CC4(C)CN2CC(C)(C3)C4=O)c2ccccc21 (centres unmarked),15.6%
17,Cc1ccccc1-c1noc(C2CCCCC2)n1,11.9%
18,COCCn1c(C)cc(C(=O)COC(=O)c2ccc([N+](=O)[O-])o2)c1C,7.03%
19,COc1ccc(NC(=O)/C(C#N)=C\c2cc(C)n(-c3ccc(Oc4ccc([N+](=O)[O-])cn4)cc3)c2C)cc1,15.8%
20,O=C(Nc1ccc(F)cc1)C(Cc1ccccc1)n1cccc1 (centres unmarked),7.17%
21,C#CCN(C(=O)c1ccc(OC2CCN(C(=O)CCOC)CC2)cc1)C1CCCCC1,13.1%
22,O=S(=O)(NCc1ccccc1)c1ccc(S(=O)(=O)NCC2CCCO2)cc1 (centres unmarked),12.1%
23,CCCCNC(=O)Oc1cc(CCl)on1,18%

row,SMILES,"hERG current change (%, negative = inhibition) at 1uM"
1,Cc1cc(C)cc(C(=O)OCC(=O)NCc2cccs2)c1,11.8%
2,O=C1CCN(Cc2ccccc2)CCN1CCOc1ccccc1,5.74%
3,COc1cc(OC)c(C(=O)NCc2ccc3c(c2)OCO3)cc1OC,4.98%
4,CC1C(=O)C(C)C(c2ccc([N+](=O)[O-])cc2)NC1c1ccc([N+](=O)[O-])cc1 (centres unmarked),-4.32%
5,CCn1nc(NS(=O)(=O)c2ccccc2)c2cc3ccc(C)cc3nc21,-1.21%
6,Cc1ccc(C(=O)NC(NCc2ccccc2)C(Cl)(Cl)Cl)cc1 (centres unmarked),-1.59%
7,Cc1cccc(NC(=O)CN2NS(=O)(=O)c3ccccc3C2=O)c1,2.98%
8,CCOC(=O)CNc1nc(OCC#N)nc(N2CCOCC2)n1,-0.975%
9,O=C(Cn1cnc2ccccc2c1=O)c1ccc2c(c1)OCCO2,6.85%
10,CCc1ccc(CNC(=O)C2CCN(S(=O)(=O)N3CCC(C)CC3)CC2)cc1,14.8%
11,CS(=O)(=O)N1N=C(c2cccs2)CC1c1ccccc1O (centres unmarked),14.8%
12,O=C(Nc1ccc(Br)cc1F)c1ccncc1,1.5%
13,CN1CCCN(C2C3CC4CC(C3)CC2C4)CC1 (centres unmarked),13.5%
14,N#CCCC12CCCCC1=Nc1ccccc12 (centres unmarked),9.57%
15,CCCCOc1ccc(C(=O)N/C(=C/c2cccc([N+](=O)[O-])c2)C(=O)O)cc1,12.7%
16,CCOc1ccc(N2CC(C(=O)NCCc3ccccc3)CC2=O)cc1 (centres unmarked),13.9%
17,COc1ccc(-n2nc(C(=O)NCC(=O)N3CCN(c4cccc(Cl)c4)CC3)c3ccccc3c2=O)c(OC)c1,10.3%
18,COc1cc(C(F)(F)F)c(C(=O)N(C)Cc2ccc(Cl)c(Cl)c2)cn1,8.59%
19,CCCCC1=NN(C(=O)c2cccnc2)C(O)(C(F)(F)F)C1 (centres unmarked),16.3%
20,CC(C)Cn1c(N)c(C(=O)CSc2nc3ncc(Cl)cc3[nH]2)c(=O)n(C)c1=O,10.4%
21,CC(C)Oc1ccc(Cc2cnc(=S)[nH]c2N)cc1,10.2%
22,COc1ccc(-c2n[nH]c(=S)n2-c2ccc(C)cc2)cc1,4.56%
23,CCNc1nc(NC(C)C)nc(Oc2ccc(OCCOc3ccc(C)cc3)nn2)n1,0.311%

row,SMILES,"hERG current change (%, negative = inhibition) at 1uM"
1,CC1=[N+]([O-])C(C)(C)N(O)C1(C)C,15.2%
2,COc1ccccc1NS(=O)(=O)c1cccc(NC(=O)Nc2ccccc2)c1,11.1%
3,CC1CCC(C(C)C)C(=O)/C1=C/c1ccc(N)cc1 (centres unmarked),10.5%
4,CCCC1CCC(c2ccc(C(=O)NN)cc2)CC1 (centres unmarked),10.6%
5,Cc1[nH]nc2c1C1(C(=O)N(Cc3ccc(Cl)cc3)c3ccccc31)C(C#N)=C(N)O2 (centres unmarked),10.5%
6,O=C(Nc1ccc(N=Nc2ccccc2)c(NC(=O)C2CCCO2)c1)C1CCCO1 (centres unmarked),9.09%
7,CCS(=O)(=O)Nc1cccc(C(=O)O)c1,12.7%
8,COc1ccc(/C=C/C(=O)Nc2cc(C(F)(F)F)ccc2Cl)cc1OC,15.1%
9,O=C(O)C1CCCN1C(=O)c1cccs1 (centres unmarked),6.74%
10,Cc1ccc(-n2c(O)c(C=NCC3CCCO3)c(=O)[nH]c2=O)c(C)c1 (centres unmarked),12.8%
11,CCc1ccc(C2=NNC(=Nc3cccc(S(=O)(=O)N(C)C)c3)SC2)cc1,6.95%
12,O=C(CSc1nc2c(c(=O)n1-c1ccc(Cl)cc1)SCC2)NCC1CCCO1 (centres unmarked),5.79%
13,CN(Cc1cccc(Cl)c1)C(=O)C1CSC2(C)CCC(=O)N12 (centres unmarked),-0.379%
14,COc1ccccc1-c1cc(C(F)(F)F)nc(NCc2cccs2)n1,7.85%
15,CCOc1ccc(CCNC(=O)c2cc(C)nc3ccccc23)cc1OCC,-10.6%
16,N#Cc1cnn2c(-c3cccc([N+](=O)[O-])c3)ccnc12,-3.5%
17,Cc1cc(NC(=O)c2ccc3c(c2)C(=O)N(CCC(C)C)C3=O)no1,5.53%
18,COc1ccc(CCNS(=O)(=O)c2cccc3cccnc23)cc1OC,8.59%
19,Nc1c2nc(-c3ccccc3)[nH]c(=O)c2nc(=O)n1-c1ccccc1,13.1%
20,CCCc1nnc(NC(=O)Nc2ccc(OC)cc2)s1,24.9%
